Screen size: about 39,000 compounds; about 220 (0.56%) showed activity. The list shows a part of the results.
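Further: static incubation at 37 °C against the wild-type strain, values averaged over two biological replicates.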

The subject of this assay is Escherichia coli K-12 BW25113. Nature of the assay: relative growth (OD600 normalised to plate interquartile mean) (fraction); higher = less growth inhibition, active = 0.2 or less. To be noted: 50 µM; LB; incubation time: overnight (16-24 h).
As to `CCOC(=O)c1nnn(CC(N)=O)c1C`, the relative growth is inactive: 1.04. As for `COc1ccc(NC(=O)Nc2ccc3c(c2)CC(=O)N([C@@H](C)CO)C[C@@H](C)[C@H](CN(C)Cc2ccc(C(F)(F)F)cc2)O3)cc1`, the relative growth was inactive: 1.05. The result for `COc1c(O)cc2c(c1O)C1OC(CO)C(O)C(O)C1OC2=O` (centres undefined) reads inactive: 1.04. As for `N#CCON1C(=O)c2ccccc2C1=O`, the relative growth is inactive: 0.987. For `C[N+]1(CCCCC[N+]2(C)CCCC2)CCCC1.O=C([O-])C(O)C(O)C(=O)O.O=C([O-])C(O)C(O)C(=O)O`, the relative growth is inactive: 0.992. With `C[C@@H]1CN([C@@H](C)CO)C(=O)c2cc(NC(=O)C3CC3)ccc2O[C@@H]1CN(C)Cc1ccc(-c2ccccc2)cc1` the figure was inactive: 0.921; with `C[C@H](CO)N1C[C@H](C)[C@H](CN(C)S(=O)(=O)c2ccc(F)cc2)Oc2ccc(NC(=O)C3CC3)cc2CC1=O`, inactive: 0.99; with `C[C@H]1CN([C@@H](C)CO)C(=O)c2cccc(NC(=O)Nc3cccc4ccccc34)c2O[C@@H]1CN(C)S(=O)(=O)c1cccs1`, inactive: 0.753. Consider `C[C@H](CO)N1C[C@H](C)[C@H](CN(C)C(=O)Nc2ccc3c(c2)OCO3)Oc2c(NC(=O)C3CCOCC3)cccc2C1=O`, for which the relative growth was inactive: 0.985.

For the compound `O[C@@H]1[C@@H](O)[C@H](OC/C=C/c2ccccc2)O[C@H](CO[C@@H]2OC[C@@H](O)[C@@H](O)[C@@H]2O)[C@H]1O`, the relative growth is inactive: 1.01. In the case of `C[C@@H]1CCCCO[C@@H](CN(C)S(=O)(=O)c2ccccc2)[C@H](C)CN([C@@H](C)CO)C(=O)c2cc(NC(=O)Nc3ccccc3)ccc2O1`, the relative growth is inactive: 1.07.

On to `Cc1ccccc1Nc1nnc(C)c(=O)n1N`, for which the relative growth is inactive: 0.947. Consider `C[C@@H]1CCCCO[C@H](CN(C)C(=O)Nc2ccc(F)cc2)[C@H](C)CN([C@@H](C)CO)C(=O)c2cc(NC(=O)c3ccccc3)ccc2O1`, for which the relative growth is inactive: 1.01. On to `CC12CC3CC(C)(C1)CC(N)(C3)C2.Cl`, for which the relative growth was inactive: 0.999. With `C[C@@H]1CN([C@@H](C)CO)C(=O)c2cc(-c3ccncc3)cnc2O[C@H]1CN(C)S(=O)(=O)c1ccc(F)cc1` the figure was inactive: 1.03; with `C/C=C/c1ccc2c(c1)O[C@H](CN(C)Cc1ccc(C(=O)O)cc1)[C@@H](C)CN([C@H](C)CO)S2(=O)=O`, inactive: 0.976. As to `CC1(C)CC(=O)c2c(C(F)(F)F)nn(-c3ccc(C(N)=O)c(N[C@H]4CC[C@H](OC(=O)CN)CC4)c3)c2C1`, the relative growth was inactive: 0.985. For `Cc1cc([C@@H](O)CCCN)ccc1F`, the relative growth is inactive: 1. Take `C[C@H](CO)N1C[C@H](C)[C@@H](CN(C)Cc2ccc(C(F)(F)F)cc2)Oc2c(NC(=O)Nc3ccc(F)cc3)cccc2C1=O`: the relative growth is inactive: 0.869.

The values above are taken from the supplement of paper PMC9446081.
